# Measured values reported in PubChem BioAssay AID1460 (National Center for Advancing Translational Sciences (NCATS), 2008).
# In all, about 270,000 compounds went through this assay and about 5,800 (2.1%) were called active. This list was built around the results that the source calls inconclusive (neither active nor inactive); the mix of calls is not that of the screen. Calls follow the shape of the dose curve; as a rule, active = well fitted inhibition curve with a large enough effect; inconclusive = small, poorly fitted or top-dose-only effect; inactive = flat fitted curve, though single readings scatter. A potency beside an inconclusive call is a rough fit, not a confirmed value.
# Molecular target: Microtubule-associated protein tau (Homo sapiens) (UniProt P10636)
# UniProt P10636, sequence (P10636 whole entry, looked up): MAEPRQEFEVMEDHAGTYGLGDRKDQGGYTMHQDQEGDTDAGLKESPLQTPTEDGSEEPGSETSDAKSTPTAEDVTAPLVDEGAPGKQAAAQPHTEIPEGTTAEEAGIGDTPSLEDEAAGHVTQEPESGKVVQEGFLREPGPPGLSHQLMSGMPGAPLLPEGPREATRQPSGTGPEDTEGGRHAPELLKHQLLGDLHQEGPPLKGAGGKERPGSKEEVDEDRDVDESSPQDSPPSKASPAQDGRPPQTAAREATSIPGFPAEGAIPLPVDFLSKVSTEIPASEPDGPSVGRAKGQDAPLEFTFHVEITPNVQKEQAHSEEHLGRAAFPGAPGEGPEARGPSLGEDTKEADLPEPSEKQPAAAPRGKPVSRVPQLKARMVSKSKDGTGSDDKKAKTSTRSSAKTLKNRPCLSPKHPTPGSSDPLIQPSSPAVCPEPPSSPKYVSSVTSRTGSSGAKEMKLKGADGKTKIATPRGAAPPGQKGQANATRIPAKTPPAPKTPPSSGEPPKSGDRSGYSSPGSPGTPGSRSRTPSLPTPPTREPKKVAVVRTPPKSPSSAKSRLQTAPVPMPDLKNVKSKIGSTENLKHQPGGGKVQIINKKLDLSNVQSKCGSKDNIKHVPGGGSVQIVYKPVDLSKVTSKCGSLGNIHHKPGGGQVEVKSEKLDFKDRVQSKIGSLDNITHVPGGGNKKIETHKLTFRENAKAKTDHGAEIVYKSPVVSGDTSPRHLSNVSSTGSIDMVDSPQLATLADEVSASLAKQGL
# Assay: qHTS for Inhibitors of Tau Fibril Formation, Thioflavin T Binding; also: nearly all actives have a fitted effect of over 55% in size
# Settings: recombinant tau K18 P301L (four-repeat tau fragment), heparin-induced fibrillization, ThT fluorescence; series mostly up to 57.4 µM; activity, negative = inhibition: at the top concentration
# Procedure, shortened: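 K18 P301L tau (15 uM + 0.24 uM Alexa 594-tagged), heparin 20 uM, NaOAc pH 7, 6 h 37 C; ThT 30 uM, 1 h RT, ex 450/em 510 nm.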
# % is scaled to controls: 0 for no effect and ±100 for the full control effect; potency is read from the fitted curve at half-maximal effect; tags tell the direction and shape of the fitted curve.
SMILES,Potency,"activity, negative = inhibition"
CC1CN(c2ccc([N+](=O)[O-])c(N3CCCCC3)c2)CCN1 (configuration not stated),"inconclusive: 39.8 µM [inhibitor, single point]",–
COc1cccc(N2C(=O)NC(=O)/C(=C/c3ccc4c5c(cccc35)CC4)C2=O)c1,"inconclusive: 14.1 µM [inhibitor, partial curve]",–
Cc1cc(/C=C2\C(=O)NC(=O)N(c3ccc(F)cc3)C2=O)c(C)n1-c1ccc(C(=O)O)cc1,"inconclusive: 10 µM [inhibitor, partial curve]",–
COc1ccc(C(C)=O)cc1CC(C(=O)c1ccc(C)cc1)N(C)C (configuration not stated),–,inactive: -6.45%
CCn1c(O)c(C=Nc2ccc(S(N)(=O)=O)cc2)c(=O)n(CC)c1=S,"inconclusive: 14.1 µM [inhibitor, partial curve]",–
CCC(C)C(=O)OC1C(O)C2C(CN3CC(C)CCC3[C@]2(C)O)C2C[C@]34O[C@@]5(O)C(OC(=O)C(C)(O)CC)CCC3(C)C5C(OC(C)=O)C(OC(C)=O)C4[C@@]21O (some centres not stated),–,inactive: 0.679%
C#CCOc1ccc2c(c1)c(C(C)=O)c(C)n2Cc1ccccc1,"inconclusive: 17.8 µM [inhibitor, partial curve, poor fit]",–
CC/C=C\C/C=C\C/C=C\C/C=C\C/C=C\CCCC(=O)NCCO,–,inactive: -4.75%
CC1=C(O)C(=O)C=C2C1=CC=C1[C@]2(C)CC[C@@]2(C)C3C[C@](C)(C(=O)O)CC[C@@]3(C)CC[C@@]12C (some centres not stated),"inconclusive: 35.5 µM [inhibitor, single point]",–
COc1ccc(N2C(=O)CC(N3CC=C(c4ccccc4)CC3)C2=O)cc1 (configuration not stated),"inconclusive: 25.1 µM [inhibitor, partial curve]",–
COCCCn1c(N)c(C(=O)NCc2ccco2)c2nc3ccccc3nc21,"inconclusive: 17.8 µM [inhibitor, partial curve]",–
COc1ccc(NC(=O)CCc2nc(C3=CCN(Cc4cccc(Cl)c4)CC3)no2)c(OC)c1,"inconclusive: 12.6 µM [inhibitor, partial curve]",–
C/C(=C\c1ccc(N(C)C)cc1)[N+](=O)[O-],active: 12.6 µM,–
O=C1NC(=O)C(=Cc2cn(CCOc3ccc4c(c3)OCO4)c3ccccc23)C(=O)N1,"inconclusive: 2.82 µM [inhibitor, full curve]",–
Cc1ccc(-c2nc(N3CCOCC3)s[n+]2-c2ccccc2)cc1,"inconclusive: 17.8 µM [inhibitor, partial curve]",–
CCOC(=O)C(NC(=O)C(Cc1ccc(N(CCCl)CCCl)cc1)NC(C)=O)C(C)C (configuration not stated),"inconclusive: 22.4 µM [inhibitor, single point]",–

SMILES,Potency,"activity, negative = inhibition"
Oc1ccc2c3c1O[C@H]1c4c(c5ccccc5n4Cc4ccccc4)C[C@]4(O)[C@H](C2)N(CC2CC2)CC[C@@]314,"inconclusive: 20 µM [inhibitor, partial curve, poor fit]",–
CC1(C)C(C(=O)NN2C(=O)c3ccccc3C2=O)C1(C)C,–,inactive: -7.34%
COc1cccc(C(=O)c2c(N)c(-c3nc(-c4ccccc4)cs3)c3ccccn23)c1,"inconclusive: 15.8 µM [inhibitor, partial curve]",–
CN(C)CC1CSCCC1(O)c1ccccc1 (configuration not stated),–,inactive: 2.64%
C=CCn1c(O)c(/C(C)=N/NC(=S)Nc2ccccc2)c(=O)[nH]c1=O,"inconclusive: 31.6 µM [inhibitor, partial curve]",–
C=C1C(=O)O[C@H]2[C@H]1[C@H](OC(=O)CC(=O)O[C@@H]1C[C@@H](C)[C@@H]3C=CC(=O)[C@@]3(C)[C@H]3OC(=O)C(=C)[C@H]13)C[C@@H](C)[C@H]1C=CC(=O)[C@]12C,active: 15.8 µM,–
Cn1c(=O)c2c(nc(SCc3ccccc3)n2Cc2ccc(Cl)cc2)n(C)c1=O,"inconclusive: 31.6 µM [inhibitor, single point]",–
CCN(CC)c1ccc(/C=C2/C(=O)NC(=O)N(CC3CCCO3)C2=O)cc1 (configuration not stated),"inconclusive: 7.94 µM [inhibitor, partial curve]",–
CCCN1[C@@H]2C[C@@H](O)CC[C@@H]2C[C@H]1C(=O)OC,"inconclusive: 1 µM [inhibitor, full curve, poor fit]",–
N#CCCn1cc(C=C2C(=O)NC(=O)NC2=O)c(-c2ccccc2)n1,"inconclusive: 3.55 µM [inhibitor, full curve]",–
CN(N=O)c1cc(O)ccc1O,active: 11.2 µM,–
Cc1cccc(-c2nn3c(=O)cc(CN4CCN(C(=O)COc5ccc(Cl)cc5)CC4)nc3s2)c1,"inconclusive: 20 µM [inhibitor, partial curve]",–
COc1ccc(N=Cc2c(O)n(-c3ccc(C)cc3)c(=O)[nH]c2=O)cc1,"inconclusive: 15.8 µM [inhibitor, partial curve]",–
C[C@]12CC(=CO)C(=O)C[C@@H]1CC[C@@H]1[C@@H]2CC[C@@]2(C)[C@H]1CC[C@]2(C)O,"inconclusive: 31.6 µM [inhibitor, single point]",–
N#CC1=C(N)Oc2c(c(=O)oc3ccccc23)C1c1cccnc1 (configuration not stated),–,inactive: 2.89%
BrC1C(Br)C(Br)C(Br)C(Br)C1Br (configuration not stated),"inconclusive: 15.8 µM [inhibitor, partial curve]",–
